{
  "source": "the supplement of paper PMC12645437",
  "about": "“Orthogonal IMiD-Degron Pairs Induce Selective Protein Degradation in Cells” (ACS Chemical Biology, 2025)",
  "sequences": {"B1": {"name": "Q9UKT9 (peptide)", "chain": "FLCEQCGAPFTQKGNLLRHIKL"}, "B2": {"name": "Q9UKT9 (peptide)", "chain": "FLCPVCGAQFTQKGNLLRHIKL"}, "B3": {"name": "Q9UKT9 (peptide)", "chain": "LTCNQCGFKCTQKGNLLRHIKL"}, "B4": {"name": "Q9UKT9 (peptide)", "chain": "FSCNVCGAWFTQKGNLLRHIKL"}, "B5": {"name": "Q9UKT9 (peptide)", "chain": "FTCEVCGARFTQKGNLLRHIKL"}, "B6": {"name": "Q9UKT9 (peptide)", "chain": "FHCPICGHDFTQKGNLLRHIKL"}, "B7": {"name": "Q9UKT9 (peptide)", "chain": "FYCEVCGALFTQKGNLLRHIKL"}, "B8": {"name": "Q9UKT9 (peptide)", "chain": "FRCEICGREFTQKGNLLRHIKL"}, "B9": {"name": "Q9UKT9 (peptide)", "chain": "FYCPVCGAQFTQKGNLLRHIKL"}, "B10": {"name": "Q9UKT9 (peptide)", "chain": "FRCNQCGHPFTQKGNLLRHIKL"}, "B11": {"name": "Q9UKT9 (peptide)", "chain": "LMCNQCGFKCTQKGNLLRHIKL"}, "B12": {"name": "Q9UKT9 (peptide)", "chain": "FQCEQCGAWFTQKGNLLRHIKL"}, "B13": {"name": "Q9UKT9 (peptide)", "chain": "FSCEQCGACFTQKGNLLRHIKL"}, "B14": {"name": "Q9UKT9 (peptide)", "chain": "FCCPICGAHFTQKGNLLRHIKL"}, "B15": {"name": "Q9UKT9 (peptide)", "chain": "FQCDICGAFFTQKGNLLRHIKL"}, "B16": {"name": "Q9UKT9 (peptide)", "chain": "FMCPICGRTFTQKGNLLRHIKL"}, "B17": {"name": "Q9UKT9 (peptide)", "chain": "FHCDICGALFTQKGNLLRHIKL"}, "B18": {"name": "Q9UKT9 (peptide)", "chain": "LHCEICGFMCTQKGNLLRHIKL"}, "B19": {"name": "Q9UKT9 (peptide)", "chain": "FACDICGADFTQKGNLLRHIKL"}, "B20": {"name": "Q9UKT9 (peptide)", "chain": "FLCNQCGAMFTQKGNLLRHIKL"}, "B21": {"name": "Q9UKT9 (peptide)", "chain": "FGCPVCGAGFTQKGNLLRHIKL"}, "B22": {"name": "Q9UKT9 (peptide)", "chain": "FSCPICGHYFTQKGNLLRHIKL"}, "B23": {"name": "Q9UKT9 (peptide)", "chain": "FKCNICGAAFTQKGNLLRHIKL"}, "B24": {"name": "Q9UKT9 (peptide)", "chain": "FTCDICGATFTQKGNLLRHIKL"}, "B25": {"name": "Q9UKT9 (peptide)", "chain": "LSCPICGFWCTQKGNLLRHIKL"}, "B26": {"name": "Q9UKT9 (peptide)", "chain": "FWCNQCGRGFTQKGNLLRHIKL"}, "B27": {"name": "Q9UKT9 (peptide)", "chain": "LSCEICGFYCTQKGNLLRHIKL"}, "B28": {"name": "Q9UKT9 (peptide)", "chain": "FRCPQCGAKFTQKGNLLRHIKL"}, "B29": {"name": "Q9UKT9 (peptide)", "chain": "FCCPICGHFFTQKGNLLRHIKL"}, "B30": {"name": "Q9UKT9 (peptide)", "chain": "FTCNICGAFFTQKGNLLRHIKL"}, "B31": {"name": "Q9UKT9 (peptide)", "chain": "FECNQCGRQFTQKGNLLRHIKL"}, "B32": {"name": "Q9UKT9 (peptide)", "chain": "LKCNQCGFMCTQKGNLLRHIKL"}},
  "note": "Some of the results follow.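 Further: jurkat cells carrying a lentiviral library of mutant zinc finger degrons fused to EGFP plus mCherry, mCherry+ cells FACS sorted, degron abundance counted by next-generation sequencing.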",
  "data": [
    {"biological_target": "no compound (DMSO)", "assay": "log2 fold change of degron read counts, EGFP-low vs EGFP+ sorted cells; higher = lower degron-EGFP level without compound (poor expression or instability)", "details": "compound: DMSO control; 18 h", "values": [
      {"sequence": "B1", "log2 fold change of degron read counts": -1.01},
      {"sequence": "B2", "log2 fold change of degron read counts": -0.881},
      {"sequence": "B3", "log2 fold change of degron read counts": -0.283},
      {"sequence": "B4", "log2 fold change of degron read counts": 0.0307},
      {"sequence": "B5", "log2 fold change of degron read counts": -1.6},
      {"sequence": "B6", "log2 fold change of degron read counts": -0.99},
      {"sequence": "B7", "log2 fold change of degron read counts": -0.526},
      {"sequence": "B8", "log2 fold change of degron read counts": -1.74},
      {"sequence": "B9", "log2 fold change of degron read counts": -0.00395},
      {"sequence": "B10", "log2 fold change of degron read counts": 0.6},
      {"sequence": "B11", "log2 fold change of degron read counts": 0.497},
      {"sequence": "B12", "log2 fold change of degron read counts": -1.13},
      {"sequence": "B13", "log2 fold change of degron read counts": -2.64},
      {"sequence": "B14", "log2 fold change of degron read counts": -0.314},
      {"sequence": "B15", "log2 fold change of degron read counts": -1.16},
      {"sequence": "B16", "log2 fold change of degron read counts": -0.896},
      {"sequence": "B17", "log2 fold change of degron read counts": -0.162},
      {"sequence": "B18", "log2 fold change of degron read counts": 0.151},
      {"sequence": "B19", "log2 fold change of degron read counts": -1.96},
      {"sequence": "B20", "log2 fold change of degron read counts": -0.0501},
      {"sequence": "B21", "log2 fold change of degron read counts": -0.0215},
      {"sequence": "B22", "log2 fold change of degron read counts": 0.0826},
      {"sequence": "B23", "log2 fold change of degron read counts": -1.11},
      {"sequence": "B24", "log2 fold change of degron read counts": -1.45},
      {"sequence": "B25", "log2 fold change of degron read counts": 1.35},
      {"sequence": "B26", "log2 fold change of degron read counts": 0.446},
      {"sequence": "B27", "log2 fold change of degron read counts": 1.06},
      {"sequence": "B28", "log2 fold change of degron read counts": -0.483},
      {"sequence": "B29", "log2 fold change of degron read counts": 0.838},
      {"sequence": "B30", "log2 fold change of degron read counts": 0.273},
      {"sequence": "B31", "log2 fold change of degron read counts": -0.684},
      {"sequence": "B32", "log2 fold change of degron read counts": 0.468}
    ]}
  ]
}
